# PubChem BioAssay AID1508623 (National Center for Advancing Translational Sciences (NCATS), 2021)
# Screen size: about 48,000 compounds; about 450 (0.94%) were called active. Not shown: some 19% with an inconclusive outcome. The call rests on the fitted dose curve; in most records, active means well fitted inhibition curve with a large enough effect; inconclusive means small, poorly fitted or top-dose-only effect; inactive means no such curve, though single readings can be large or run the other way. The list shows a part of the results.
# Assay: Primary qHTS for Identification of Small Molecule Inhibitors of Huntingtin Promoter Activity; further: nearly all actives have a fitted effect of over 50% in size
# Settings: HEK293 HTT promoter firefly luciferase reporter (activity 0% = vehicle and -100% = no light), 24 h; series mostly up to 57.5 µM; activity change, negative = inhibition: at the top concentration
# Outline: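 Firefly luciferase readout (Dual-Glo, 10 min RT) after 24 h, 37 °C compound exposure (final up to 57.5 uM) of HEK293 reporter cells cultured 24 h beforehand; PTC124 at 50 uM final as control inhibitor; activity scaled vehicle 0%, zero RLU -100%.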
# Potency means the concentration at half of the fitted maximal effect.
SMILES,"activity change, negative = inhibition",Potency
Cc1cccc(CSCc2ccc(C(=O)NCCc3ccccc3)o2)c1,inactive: 0.0114%,–
CC(C)c1ccc2oc3nc(N)c(C(=O)O)cc3c(=O)c2c1,inactive,–
COc1ccccc1CCNC(=O)Cc1c(C)c2cc3c(C)coc3cc2oc1=O,inactive: 3.08%,–
O=C(c1cc2ccccc2oc1=O)N1CCN(c2ccc(F)cc2)CC1,inactive: -0.223%,–
Nc1c(-c2nc(-c3ccccc3)no2)nnn1CC(=O)Nc1cccc(F)c1,inactive: -4.96%,–
CCOc1cc(-c2ccc(OC(=O)c3ccc(C)cc3)c(OC)c2)cc(=O)c2c(C)oc(C)c12,inactive: -19%,–
CCN(CC)CCN(C(=O)c1ccco1)c1nc2cc(C)cc(C)c2s1,inactive: -4.45%,–
CC(=O)c1ccc(NC(=O)CN(C)S(=O)(=O)c2cc3c(cc2Cl)NC(=O)CO3)cc1,inactive: -8.75%,–
CCOC(=O)c1ccc(Nc2c(-c3cccc(O)c3)nc3nc[nH]n23)cc1,inactive: -22.5%,–
N#Cc1c(-n2ncnc2-c2ccccc2C(F)(F)F)sc2c1CCCCC2,–,active: 1120 nM
O=C(NCc1cccs1)c1ccc(CSc2nc3ccncc3n2Cc2ccccc2)cc1,inactive: 0.392%,–
CC1CCC(NC(=O)c2ccc(CS(=O)(=O)c3cccc(C(F)(F)F)c3)o2)CC1 (stereo not drawn),inactive: -25.7%,–
COc1cccc(C2=NS(=O)(=O)N(C)C(C(=O)Nc3ccccc3SC)=C2)c1,inactive: -11.1%,–
Cc1ccc(C)c(Cn2c(=O)n(Cc3ccccc3)c(=O)c3c2c2cc(C)ccc2n3C)c1,inactive: 15.9%,–
Cc1ccc(C(=O)Nc2ccc(S(=O)(=O)Nc3onc(C)c3C)cc2)cc1,inactive: 0%,–
CCOC(=O)c1ccc(NC(=O)Cn2c(=O)cc(C(F)(F)F)c3c(C)nn(C)c32)cc1,inactive: 0%,–
Fc1ccc(CSc2nc(NCc3ccccc3)c3ccccc3n2)cc1,inactive: -23%,–
COc1ccc(-c2cc(C(=O)Nc3cccc(O)c3)on2)cc1OC,inactive: 28.3%,–
COc1ccc(CNC(=O)Cn2c(=O)cc(C)c3c(C)nn(-c4cccc(Cl)c4C)c32)cc1,inactive: 0.478%,–
COc1cc(NC(=O)NCCN2CCN(c3ccccc3)CC2)cc(OC)c1OC,inactive: -16.4%,–
Cc1ccc(N(C)C(=O)CCS(=O)(=O)c2cc3c(cc2Cl)NC(=O)CO3)cc1,inactive: -8.61%,–

SMILES,"activity change, negative = inhibition",Potency
CCN(CC)c1ccc2cc(-c3nc(-c4ccccc4F)no3)c(=O)oc2c1,inactive: 42%,–
Cc1cccc(NC(=O)CSc2nc3c(sc4ccccc43)c(=O)n2CCCC(=O)NC2CCCC2)c1,inactive: -1.69%,–
CCc1ccc(NC(=O)Nc2nnc(N(C)C3CCCCC3)s2)cc1,inactive: -22.7%,–
CC(=O)c1ccc(NC(=O)Cn2c(=O)nc(-c3ccccc3)c3cc(Cl)ccc32)cc1,inactive: -19.1%,–
CCOC(=O)C1CCCN(c2ncnc3c2nnn3C)C1 (stereo not drawn),inactive: -0.447%,–
COc1cccc(NC(=O)c2oc3ccccc3c2NC(=O)c2cc3ccccc3o2)c1,inactive: -1.89%,–
COCCn1c(SCC(=O)c2c[nH]c3ccccc23)nc2cc(C(=O)NC(C)C)ccc2c1=O,inactive: -28.8%,–
Cc1nc2ccn(Cc3cccnc3)c(=O)c2cc1C(=O)Nc1ccc(F)cc1F,inactive: 0.172%,–
COCCCNC(=O)c1ccc(C)c(-n2c(C)nc3cccnc32)c1,inactive: -7.27%,–
CCOc1ccc(-c2nnc(SCC(=O)c3ccc(Br)cc3)n2-c2ccccc2)cc1,inactive: -23.6%,–
CCOc1ccc(CCNC(=O)c2cc3c(s2)-c2c(C)cccc2OC3)cc1,inactive: -2.28%,–
O=C(CN1C(=O)CCc2cc(S(=O)(=O)N3CCOCC3)ccc21)NCc1ccc(Cl)cc1,inactive: -15.8%,–
Cc1ccc(NC(=O)CSc2nnc(-c3ccc(Br)cc3)o2)c(C)c1,inactive: -9.65%,–
CCOC(=O)Cn1c(=O)oc2cc(S(=O)(=O)N3CCC(C(=O)OCC)CC3)ccc21,inactive: -24.4%,–
Cc1ccc(OCC(=O)Nc2ccc3nc(SCCOc4ccccc4)sc3c2)cc1,inactive: -9.25%,–
COc1ccc(NC(=O)Cn2nnc3sc4c(c3c2=O)CCCC4)cc1,inactive: -16.9%,–
Cc1ccc(NC(=O)CN2C(=O)COc3ccc(S(=O)(=O)Nc4ccccc4)cc32)c(C)c1,inactive: -5.32%,–
Cc1cc(C)c(NC(=O)CSc2nc3ccncc3[nH]2)c(C)c1,inactive: -29.4%,–
Cc1ccc(C2=NC(c3ccccc3)=Nc3ccc(Cl)cc3N2)cc1,inactive: 34.3%,–
COC(=O)c1cc2oc3ccccc3c2n1Cc1c(C)cc(C)cc1C,inactive: -20.6%,–
COCCCNC(=O)CSc1nc(-c2ccc(OC)c(OC)c2)[nH]c1-c1ccc(F)cc1,inactive: -12.4%,–

SMILES,"activity change, negative = inhibition",Potency
Cc1cc(C)c2c(=O)cc(C(=O)NCc3ccc(S(N)(=O)=O)cc3)oc2c1,inactive: 4.43%,–
CCc1ccc(NC(=O)CCc2nnc3n(C)c(=O)c4sccc4n23)cc1,inactive: -14.7%,–
COc1cc2ccccc2cc1C(=O)Nc1cccc(-c2nc3cc(C)ccc3o2)c1C,inactive: -0.803%,–
Cc1nn2c(=O)cc(COC(=O)COc3ccc(F)cc3)nc2s1,inactive: -6.74%,–
Cc1cccc(NC(=O)C2CCCN(S(=O)(=O)c3ccc(Br)s3)C2)c1 (stereo not drawn),inactive: 14.5%,–
Cc1nc2cccnc2n1-c1cccc(C(=O)NCCc2ccc(S(N)(=O)=O)cc2)c1,inactive: 1.03%,–
CCCCCn1c(=O)[nH]c2cc(C(=O)Nc3ccc(F)c(F)c3)ccc2c1=O,inactive: -1.51%,–
Cc1cc(SCC(=O)NCc2ccc(Cl)cc2)nc(=O)[nH]1,inactive: -14.2%,–
CCN(CC)CCOC(=O)c1ccc(NC(=O)c2cc3c(=O)n(CC)c4ccccc4c3s2)cc1,inactive: -5.87%,–
Cc1ccc(S(=O)(=O)N2CCC(C(=O)NCc3ccccc3Cl)CC2)cc1,inactive: -17.8%,–
CCN1CCN(Cc2c(O)ccc3c(C)c(-c4ccc(OC)cc4)c(=O)oc23)CC1,inactive: -22.7%,–
Cc1ccccc1C(=O)Nc1cccc(OCc2cc(=O)n3c(C)csc3n2)c1,inactive: 13.7%,–
COc1ccc(NC(=O)C2=CC(c3ccco3)=NS(=O)(=O)N2C)cc1,inactive: -21%,–
Oc1cc(O)cc(C=Cc2ccc(O)c(O)c2)c1,inactive: 13.2%,–
Cc1ccc(C)c(NC(=O)CN2CCSc3ccc(S(=O)(=O)N4CCCC4)cc32)c1,inactive: -33.4%,–
COc1ccccc1N1CCN(c2ncnc3c2nnn3C)CC1,inactive: 18.2%,–
CCOC(=O)c1oc2ccc(S(=O)(=O)n3nc(-c4ccc(C)cc4)cc3N)cc2c1C,inactive: -11.8%,–
COc1ccc(NC(=O)C2CCN(S(=O)(=O)c3cccc(-c4noc(C)n4)c3)CC2)cc1OC,inactive: -29.8%,–
CC(C)c1ccc(CN(C(=O)c2cc3ccccc3oc2=O)C2CCS(=O)(=O)C2)cc1 (stereo not drawn),inactive: -3.66%,–
CCOCCn1ccc2c(OCC(=O)Nc3ccc(C(N)=O)cc3)cccc2c1=O,inactive: 0%,–
COc1ccc(C2NC(=O)N(C)C3=C2C(=O)N(c2ccc(Br)cc2)C3)cc1 (stereo not drawn),inactive: -18.8%,–
